The entries are a selection whose mix differs from that of the whole data set. The list includes weakly bound sequences.
Key:
Assay in all cases: protein-binding microarray (PBM)
Conditions in all cases: PBM: ~300 nM protein, 6 mM HEPES pH 7.8, 80 mM KCl, 0.5 mM EDTA, 0.5 mM EGTA, 6% glycerol, 35 ng/ul poly-dIdC, 1% milk, 1 h, room temperature; Ap Aiptasia and Nv Nematostella (sea anemones) / Co Capsaspora / Aq Amphimedon (sponge) / Dm Drosophila / Hu human; RHD is the Rel homology domain; high values mean tight binding; most listed sequences are background and not binding sites; double strand, one strand shown
[1] = target: T1, GST-Nv-NF-kB (Cys allele) (UniProt E5G601)
T1 sequence: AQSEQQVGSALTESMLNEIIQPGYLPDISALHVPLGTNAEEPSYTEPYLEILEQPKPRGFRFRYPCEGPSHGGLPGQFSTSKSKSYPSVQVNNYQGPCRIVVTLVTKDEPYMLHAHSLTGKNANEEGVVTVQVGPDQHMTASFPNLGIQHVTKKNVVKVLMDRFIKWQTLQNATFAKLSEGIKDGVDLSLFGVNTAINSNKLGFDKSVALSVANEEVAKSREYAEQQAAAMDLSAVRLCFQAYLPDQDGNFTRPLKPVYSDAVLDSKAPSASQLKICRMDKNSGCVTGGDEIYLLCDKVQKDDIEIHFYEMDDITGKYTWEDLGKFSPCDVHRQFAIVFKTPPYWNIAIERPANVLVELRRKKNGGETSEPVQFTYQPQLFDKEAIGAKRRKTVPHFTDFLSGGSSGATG

GST-Dm-Relish = target: T2, GST-Dm-Relish (UniProt Q94527)
T2 sequence: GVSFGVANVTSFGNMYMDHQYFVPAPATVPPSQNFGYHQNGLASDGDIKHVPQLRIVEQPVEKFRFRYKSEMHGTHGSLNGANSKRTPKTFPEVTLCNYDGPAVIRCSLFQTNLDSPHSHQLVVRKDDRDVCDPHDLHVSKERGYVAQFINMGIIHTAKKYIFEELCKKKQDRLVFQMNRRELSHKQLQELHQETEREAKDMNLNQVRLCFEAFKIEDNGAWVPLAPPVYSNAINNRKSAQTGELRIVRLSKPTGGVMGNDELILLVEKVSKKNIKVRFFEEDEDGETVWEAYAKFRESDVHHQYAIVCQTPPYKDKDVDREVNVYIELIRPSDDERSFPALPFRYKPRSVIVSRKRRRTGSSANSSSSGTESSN

GST-Co-NF-kB = target: T3, GST-Co-NF-kB (UniProt F1ARL5)
T3 sequence: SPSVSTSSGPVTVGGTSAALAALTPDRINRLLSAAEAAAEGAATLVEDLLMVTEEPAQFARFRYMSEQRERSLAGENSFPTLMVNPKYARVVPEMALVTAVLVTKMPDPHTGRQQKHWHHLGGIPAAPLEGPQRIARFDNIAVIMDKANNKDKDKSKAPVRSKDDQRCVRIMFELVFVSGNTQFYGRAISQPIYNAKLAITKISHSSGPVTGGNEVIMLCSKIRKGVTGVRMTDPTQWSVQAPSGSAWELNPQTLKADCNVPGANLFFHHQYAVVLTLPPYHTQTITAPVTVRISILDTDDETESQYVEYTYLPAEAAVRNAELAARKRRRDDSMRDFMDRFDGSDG

## CCGATTAACATCAGGGACCCCCCTGATGTTAATCGGGTCTTGATTCGCTTGACGCTGCTG
[1]
  binding signal: 5.59 z-score
GST-Dm-Relish
  binding signal: 9.78 z-score

## CCGATTAACATCACGTATTTCCCTGATGTTAATCGGGTCTTGATTCGCTTGACGCTGCTG
[1]
  binding signal: 4.03 z-score
GST-Dm-Relish
  binding signal: 4.26 z-score

## CCGATTAACATCAAGGTACCCCCTGATGTTAATCGGGTCTTGATTCGCTTGACGCTGCTG
[1]
  binding signal: 2.82 z-score
GST-Dm-Relish
  binding signal: 2.84 z-score

## CCGATTAACATCAACACTCCCCCTGATGTTAATCGGGTCTTGATTCGCTTGACGCTGCTG
[1]
  binding signal: 4.24 z-score
GST-Dm-Relish
  binding signal: 2.43 z-score

## CCGATTAACATCAGGGGATTTACTGATGTTAATCGGGTCTTGATTCGCTTGACGCTGCTG
[1]
  binding signal: 9.25 z-score
GST-Dm-Relish
  binding signal: 10.5 z-score

## CCGATTAACATCAAAACCCCCCATGATGTTAATCGGGTCTTGATTCGCTTGACGCTGCTG
[1]
  binding signal: 6.62 z-score
GST-Dm-Relish
  binding signal: 9.53 z-score

## CCGATTAACATCACGGGGAACTCTGATGTTAATCGGGTCTTGATTCGCTTGACGCTGCTG
[1]
  binding signal: 6.61 z-score
GST-Dm-Relish
  binding signal: 7.12 z-score

## CCGATTAACATCACTGGATTCCCTGATGTTAATCGGGTCTTGATTCGCTTGACGCTGCTG
[1]
  binding signal: 2.76 z-score
GST-Dm-Relish
  binding signal: 4.48 z-score

## CCGATTAACATCACAGATTTCCCTGATGTTAATCGGGTCTTGATTCGCTTGACGCTGCTG
[1]
  binding signal: 5.4 z-score
GST-Dm-Relish
  binding signal: 2.66 z-score

## CCGATTAACATCACCACTTTCCCTGATGTTAATCGGGTCTTGATTCGCTTGACGCTGCTG
[1]
  binding signal: 4.07 z-score
GST-Dm-Relish
  binding signal: 1.32 z-score

## CCGATTAACATCACGGGAAACTCTGATGTTAATCGGGTCTTGATTCGCTTGACGCTGCTG
[1]
  binding signal: 4.12 z-score
GST-Dm-Relish
  binding signal: 1.55 z-score

## CCGATTAACATCAGAAACTCCCCTGATGTTAATCGGGTCTTGATTCGCTTGACGCTGCTG
[1]
  binding signal: 7.68 z-score
GST-Dm-Relish
  binding signal: 7.08 z-score

## CCGATTAACATCAGGGAATTGGATGATGTTAATCGGGTCTTGATTCGCTTGACGCTGCTG
[1]
  binding signal: 3.52 z-score
GST-Dm-Relish
  binding signal: -0.156 z-score

## CCGATTAACATCAAATTTTCCCATGATGTTAATCGGGTCTTGATTCGCTTGACGCTGCTG
[1]
  binding signal: 5.18 z-score
GST-Dm-Relish
  binding signal: 1.94 z-score

## CCGATTAACATCAAAAGATCCCCTGATGTTAATCGGGTCTTGATTCGCTTGACGCTGCTG
[1]
  binding signal: 8.42 z-score
GST-Dm-Relish
  binding signal: 9.75 z-score

## CCGATTAACATCACCCGGGTAAATGATGTTAATCGGGTCTTGATTCGCTTGACGCTGCTG
[1]
  binding signal: 0.216 z-score
GST-Dm-Relish
  binding signal: 0.968 z-score

## CCGATTAACATCAACGTATTCCCTGATGTTAATCGGGTCTTGATTCGCTTGACGCTGCTG
[1]
  binding signal: 2.78 z-score
GST-Dm-Relish
  binding signal: 1.41 z-score

## CCGATTAACATCAGGGGAAATGATGATGTTAATCGGGTCTTGATTCGCTTGACGCTGCTG
[1]
  binding signal: 6.87 z-score
GST-Dm-Relish
  binding signal: 2.27 z-score

## CCGATTAACATCAGGGGGGAACCTGATGTTAATCGGGTCTTGATTCGCTTGACGCTGCTG
[1]
  binding signal: 5.48 z-score
GST-Dm-Relish
  binding signal: 5.48 z-score

## CCGATTAACATCAGGGGAAGTACTGATGTTAATCGGGTCTTGATTCGCTTGACGCTGCTG
[1]
  binding signal: 8.22 z-score
GST-Dm-Relish
  binding signal: 10.7 z-score

## CCGATTAACATCAGGGGGGCGCATGATGTTAATCGGGTCTTGATTCGCTTGACGCTGCTG
[1]
  binding signal: 3.14 z-score
GST-Dm-Relish
  binding signal: 4.09 z-score

## CCGATTAACATCATCCGGGAAAATGATGTTAATCGGGTCTTGATTCGCTTGACGCTGCTG
[1]
  binding signal: 3.79 z-score
GST-Dm-Relish
  binding signal: 1.58 z-score

## CCGATTAACATCAAGGGAAAAATTGATGTTAATCGGGTCTTGATTCGCTTGACGCTGCTG
[1]
  binding signal: 6.35 z-score
GST-Dm-Relish
  binding signal: 1.89 z-score

## CCGATTAACATCAAGGGGAATTATGATGTTAATCGGGTCTTGATTCGCTTGACGCTGCTG
[1]
  binding signal: 10.5 z-score
GST-Dm-Relish
  binding signal: 7.09 z-score

## CCGATTAACATCACCCTTGGGAATGATGTTAATCGGGTCTTGATTCGCTTGACGCTGCTG
[1]
  binding signal: 0.985 z-score
GST-Dm-Relish
  binding signal: 0.883 z-score

## CCGATTAACATCAATTCCCCTGATGATGTTAATCGGGTCTTGATTCGCTTGACGCTGCTG
[1]
  binding signal: 7.45 z-score
GST-Dm-Relish
  binding signal: 3.81 z-score

## CCGATTAACATCACGGACTTCCCTGATGTTAATCGGGTCTTGATTCGCTTGACGCTGCTG
GST-Co-NF-kB
  binding signal: 0.974 z-score

## CCGATTAACATCAGGGGGAGAAATGATGTTAATCGGGTCTTGATTCGCTTGACGCTGCTG
GST-Co-NF-kB
  binding signal: 10.7 z-score

## CCGATTAACATCAGGGAAACCACTGATGTTAATCGGGTCTTGATTCGCTTGACGCTGCTG
GST-Co-NF-kB
  binding signal: 3.12 z-score

## CCGATTAACATCAGGGGGGTAGATGATGTTAATCGGGTCTTGATTCGCTTGACGCTGCTG
GST-Co-NF-kB
  binding signal: 5.47 z-score

## CCGATTAACATCAGGGGATCCACTGATGTTAATCGGGTCTTGATTCGCTTGACGCTGCTG
GST-Co-NF-kB
  binding signal: 2.76 z-score

## CCGATTAACATCAGGGGACACCCTGATGTTAATCGGGTCTTGATTCGCTTGACGCTGCTG
GST-Co-NF-kB
  binding signal: 3.91 z-score

## CCGATTAACATCAGGGGAACATATGATGTTAATCGGGTCTTGATTCGCTTGACGCTGCTG
GST-Co-NF-kB
  binding signal: 7.58 z-score

## CCGATTAACATCAGGGATTTACCTGATGTTAATCGGGTCTTGATTCGCTTGACGCTGCTG
GST-Co-NF-kB
  binding signal: 0.792 z-score

## CCGATTAACATCAAATTCCCGGGTGATGTTAATCGGGTCTTGATTCGCTTGACGCTGCTG
GST-Co-NF-kB
  binding signal: 4.43 z-score

## CCGATTAACATCAAGGATTTCCCTGATGTTAATCGGGTCTTGATTCGCTTGACGCTGCTG
GST-Co-NF-kB
  binding signal: 3.24 z-score

## CCGATTAACATCAGGCATTCCCCTGATGTTAATCGGGTCTTGATTCGCTTGACGCTGCTG
GST-Co-NF-kB
  binding signal: 3.19 z-score

## CCGATTAACATCAGGGGAACTACTGATGTTAATCGGGTCTTGATTCGCTTGACGCTGCTG
GST-Co-NF-kB
  binding signal: 5.65 z-score

## CCGATTAACATCAGAACACCCCCTGATGTTAATCGGGTCTTGATTCGCTTGACGCTGCTG
GST-Co-NF-kB
  binding signal: 3.33 z-score
